Experimental data taken from the supplement of paper PMC4967469.

Legend:
Assay in all cases: Viability of human cancer cell lines after 72 h of drug (GDSC screen)
FH535 = compound: Cc1cc([N+](=O)[O-])ccc1NS(=O)(=O)c1cc(Cl)ccc1Cl [FH535]; details: top dose 32 µM; top dose inferred
Protocol: (§1)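 Human cancer cell lines in 384-well plates, medium with 10% serum, drug for 72 h over a 256-fold dose range (nine 2-fold or five 4-fold steps up to the top dose). Adherent lines were fixed and stained with the nucleic acid dye Syto60, suspension lines read with resazurin; signal relative to control wells, capped at 0 and 100%. One two-parameter sigmoid per drug and line, fitted in a mixed model over all curves with the slope shared within a line.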

A-443654 = compound: Cc1n[nH]c2ccc(-c3cncc(OC[C@@H](N)Cc4c[nH]c5ccccc45)c3)cc12 [A-443654]; details: top dose 1.024 µM; top dose inferred
Protocol: as §1

Dasatinib = compound: Cc1nc(Nc2ncc(C(=O)Nc3c(C)cccc3Cl)s2)cc(N2CCN(CCO)CC2)n1 [Dasatinib]; details: top dose 1.28 µM
Protocol: as §1

XMD14-99 = compound: COc1cc(N2CCN(C)CC2)ccc1Nc1nc(N)c(C(=O)c2c(Cl)cccc2Cl)s1 [XMD14-99]; details: top dose 10.24 µM; top dose inferred
Protocol: as §1

AT-7519 = compound: O=C(NC1CCNCC1)c1n[nH]cc1NC(=O)c1c(Cl)cccc1Cl [AT-7519]; details: top dose 10.24 µM; top dose inferred
Protocol: as §1

Row | Cell Line | AUC (FH535) | pIC50 (FH535) | AUC (A-443654) | pIC50 (A-443654) | AUC (Dasatinib) | pIC50 (Dasatinib) | AUC (XMD14-99) | pIC50 (XMD14-99) | AUC (AT-7519) | pIC50 (AT-7519)
1 | IM-9 (myeloma, suspension) | 0.822 | 4.81 | 0.98 | < 5.99 | 0.992 | < 5.89 |  |  |  | 
2 | TE-11 (oesophagus, adherent) | 0.849 | 4.68 | 0.608 | 6.91 | 0.494 | 7.11 | 0.988 | < 4.99 | 0.963 | < 4.99
3 | SIMA (neuroblastoma, adherent) | 0.77 | 4.86 | 0.984 | < 5.99 | 0.941 | < 5.89 | 0.96 | < 4.99 | 0.912 | < 4.99
4 | KS-1 (glioma, adherent) | 0.728 | 4.97 | 0.496 | 7.21 | 0.323 | 7.65 | 0.962 | < 4.99 | 0.694 | 5.59
5 | Calu-6 (lung adenocarcinoma, adherent) | 0.408 | 5.97 | 0.637 | 6.79 | 0.831 | 6.01 | 0.978 | < 4.99 | 0.865 | < 4.99
6 | MEG-01 (chronic myeloid leukaemia, suspension) | 0.831 | 4.73 | 0.885 | 6.00 | 0.028 | > 8.30 | 0.982 | < 4.99 | 0.746 | 5.51
7 | SLVL (B-cell lymphoma, suspension) | 0.737 | 5.00 | 0.614 | 6.87 | 0.853 | 5.96 | 0.925 | < 4.99 | 0.165 | 7.25
8 | YT (lymphoid neoplasm, suspension) | 0.556 | 5.56 | 0.992 | < 5.99 | 0.991 | < 5.89 | 0.963 | < 4.99 | 0.855 | 5.20
9 | CTV-1 (acute myeloid leukaemia, suspension) | 0.663 | 5.29 | 0.714 | 6.65 | 0.014 | > 8.30 | 0.948 | < 4.99 | 0.21 | 6.94
10 | Ramos-2G6-4C10 (Burkitt lymphoma, suspension) | 0.707 | 5.16 | 0.647 | 6.82 | 0.961 | < 5.89 | 0.975 | < 4.99 | 0.225 | 6.93
11 | C2BBe1 (large intestine, adherent) | 0.729 | 5.00 | 0.916 | < 5.99 | 0.513 | 7.06 | 0.984 | < 4.99 | 0.952 | < 4.99
12 | LU-65 (large cell lung carcinoma, suspension) | 0.876 | < 4.49 | 0.859 | < 5.99 | 0.986 | < 5.89 | 0.985 | < 4.99 | 0.601 | 5.90
13 | EW-1 (Ewing sarcoma, semi-adherent) | 0.816 | 4.80 | 0.704 | 6.64 | 0.937 | < 5.89 | 0.83 | 5.24 | 0.396 | 6.47
14 | SW982 (soft tissue, adherent) | 0.765 | 4.92 | 0.653 | 6.76 | 0.241 | 7.86 | 0.969 | < 4.99 | 0.969 | < 4.99
15 | KMS-12-BM (myeloma, suspension) | 0.687 | 5.22 | 0.639 | 6.84 | 0.978 | < 5.89 | 0.979 | < 4.99 | 0.356 | 6.56
16 | MS-1 (small cell lung carcinoma, suspension) | 0.842 | 4.72 | 0.901 | < 5.99 | 0.989 | < 5.89 | 0.983 | < 4.99 | 0.875 | 5.08
17 | D-336MG (glioma, adherent) |  |  | 0.79 | 6.22 | 0.244 | 7.94 | 0.964 | < 4.99 | 0.444 | 6.36
18 | LU-165 (small cell lung carcinoma, suspension) | 0.882 | < 4.49 | 0.828 | 6.13 | 0.987 | < 5.89 | 0.988 | < 4.99 | 0.737 | 5.48
19 | TUR (B-cell lymphoma, suspension) | 0.735 | 5.05 | 0.984 | < 5.99 | 0.987 | < 5.89 | 0.938 | < 4.99 | 0.275 | 6.81
20 | ONS-76 (medulloblastoma, adherent) | 0.683 | 5.17 | 0.756 | 6.43 | 0.736 | 6.40 | 0.969 | < 4.99 | 0.366 | 6.58

Row | Cell Line | AUC (FH535) | pIC50 (FH535) | AUC (A-443654) | pIC50 (A-443654) | AUC (Dasatinib) | pIC50 (Dasatinib) | AUC (XMD14-99) | pIC50 (XMD14-99) | AUC (AT-7519) | pIC50 (AT-7519)
21 | LB373-MEL-D (melanoma, adherent) | 0.509 | 5.68 | 0.797 | 6.33 | 0.839 | 6.07 | 0.99 | < 4.99 | 0.88 | 4.99
22 | NK-92MI (lymphoid neoplasm, suspension) | 0.689 | 5.19 | 0.886 | 6.00 | 0.525 | 7.03 |  |  | 0.926 | < 4.99
23 | SNU-C2B (large intestine, adherent) | 0.612 | 5.35 | 0.67 | 6.65 |  |  | 0.978 | < 4.99 | 0.52 | 6.13
24 | NCI-H1963 (small cell lung carcinoma, suspension) | 0.711 | 5.14 | 0.791 | 6.40 | 0.991 | < 5.89 |  |  |  | 
25 | CP67-MEL (melanoma, adherent) |  |  | 0.716 | 6.37 | 0.636 | 6.60 |  |  |  | 
26 | SF268 (glioma, adherent) | 0.668 | 5.21 | 0.782 | 6.33 |  |  | 0.975 | < 4.99 | 0.448 | 6.34
27 | OS-RC-2 (kidney, adherent) | 0.668 | 5.14 | 0.66 | 6.66 |  |  | 0.969 | < 4.99 | 0.769 | 5.24
28 | DG-75 (Burkitt lymphoma, suspension) | 0.896 | < 4.49 | 0.832 | 6.18 |  |  | 0.985 | < 4.99 | 0.434 | 6.37
29 | HCC1187 (breast, suspension) | 0.783 | 4.89 | 0.87 | 6.06 | 0.931 | < 5.89 | 0.981 | < 4.99 |  | 
30 | HL-60 (acute myeloid leukaemia, suspension) | 0.617 | 5.39 | 0.829 | 6.26 |  |  | 0.978 | < 4.99 | 0.493 | 6.21
31 | THP-1 (acute myeloid leukaemia, suspension) | 0.827 | 4.77 | 0.969 | < 5.99 |  |  | 0.908 | < 4.99 |  | 
32 | KU812 (chronic myeloid leukaemia, suspension) | 0.735 | 5.06 | 0.567 |  |  |  | 0.949 | < 4.99 | 0.205 | 7.02
33 | NCI-H23 (lung adenocarcinoma, adherent) | 0.896 | < 4.49 | 0.825 | 6.22 |  |  | 0.988 | < 4.99 | 0.739 | 5.51
34 | EW-12 (Ewing sarcoma, suspension) |  |  | 0.978 | < 5.99 | 0.977 | < 5.89 |  |  |  | 
35 | SR (lymphoid neoplasm, suspension) | 0.663 | 5.27 | 0.679 | 6.72 | 0.963 | < 5.89 | 0.537 | 6.10 |  | 
36 | KP-N-RT-BM-1 (neuroblastoma, semi-adherent) |  |  | 0.784 | 6.23 | 0.975 | < 5.89 |  |  |  | 
37 | U-87-MG (glioma, adherent) | 0.832 | 4.59 | 0.976 | < 5.99 |  |  | 0.978 | < 4.99 | 0.834 | 5.08
38 | GAK (melanoma, adherent) | 0.484 | 5.74 | 0.926 | < 5.99 |  |  | 0.989 | < 4.99 | 0.985 | < 4.99
39 | SU-DHL-1 (anaplastic large cell lymphoma, suspension) | 0.964 | < 4.49 | 0.803 | 6.45 |  |  | 0.82 | 5.41 | 0.328 | 6.61
40 | NCI-H446 (small cell lung carcinoma, semi-adherent) | 0.902 | < 4.49 | 0.707 | 6.59 | 0.857 | 5.94 | 0.967 | < 4.99 |  | 

Row | Cell Line | AUC (FH535) | pIC50 (FH535) | AUC (A-443654) | pIC50 (A-443654) | AUC (Dasatinib) | pIC50 (Dasatinib) | AUC (XMD14-99) | pIC50 (XMD14-99) | AUC (AT-7519) | pIC50 (AT-7519)
41 | LB647-SCLC (small cell lung carcinoma, semi-adherent) | 0.806 | 4.73 | 0.673 | 6.68 | 0.978 | < 5.89 |  |  | 0.718 | 5.54
42 | KM12 (large intestine, adherent) | 0.669 | 5.21 | 0.677 | 6.68 |  |  | 0.959 | < 4.99 | 0.853 | 5.04
43 | MV-4-11 (leukaemia, suspension) | 0.668 | 5.27 | 0.459 | 7.30 |  |  | 0.882 | 5.12 |  | 
44 | DEL (lymphoid neoplasm, suspension) | 0.716 | 5.16 | 0.714 | 6.66 |  |  | 0.692 | 5.71 | 0.288 | 6.73
45 | SCH (stomach, adherent) | 0.786 | 4.82 | 0.898 | < 5.99 |  |  | 0.985 | < 4.99 | 0.87 | < 4.99
46 | RPMI-8226 (myeloma, suspension) | 0.718 | 5.13 | 0.796 | 6.39 | 0.988 | < 5.89 | 0.951 | < 4.99 |  | 
47 | K-562 (chronic myeloid leukaemia, suspension) |  |  | 0.791 | 6.35 |  |  | 0.968 | < 4.99 |  | 
48 | EHEB (lymphoid neoplasm, suspension) | 0.754 | 4.81 | 0.762 | 6.27 | 0.813 | 5.94 |  |  |  | 
49 | KASUMI-1 (acute myeloid leukaemia, suspension) |  |  | 0.966 | < 5.99 |  |  | 0.894 | < 4.99 | 0.352 | 6.61
50 | DU-4475 (breast, suspension) | 0.7 | 5.19 | 0.768 | 6.50 |  |  | 0.912 | 5.00 | 0.373 | 6.51
51 | DOHH-2 (B-cell lymphoma, suspension) | 0.69 | 5.17 | 0.703 | 6.63 | 0.311 | 7.62 |  |  |  | 
52 | RKO (large intestine, adherent) | 0.518 |  | 0.64 | 6.82 |  |  | 0.977 | < 4.99 | 0.418 | 6.41
53 | CAL-148 (breast, suspension) | 0.731 | 5.07 | 0.486 | 7.23 |  |  | 0.989 | < 4.99 | 0.922 | < 4.99
54 | HEL (acute myeloid leukaemia, semi-adherent) | 0.672 | 5.26 | 0.809 | 6.37 |  |  | 0.932 | < 4.99 | 0.915 | < 4.99
55 | LK-2 (lung squamous cell carcinoma, adherent) | 0.358 | 6.08 |  |  |  |  | 0.968 | < 4.99 | 0.881 | 5.01
56 | U031 (kidney, adherent) | 0.689 | 5.16 |  |  |  |  | 0.972 | < 4.99 | 0.696 | 5.63
57 | SKN-3 (head and neck, adherent) | 0.633 | 5.30 |  |  |  |  | 0.983 | < 4.99 | 0.636 | 5.79
58 | CAPAN-1 (pancreas, adherent) | 0.515 | 5.66 |  |  |  |  | 0.987 | < 4.99 | 0.729 | 5.50

pIC50: −log10 of the molar value. A lower IC50 marks a more sensitive line; where the fit passes the top or lowest dose, that dose stands as a limit. For AUC the same curve is integrated over the 256-fold range of doses and scaled to a fraction; it is 1 without any effect and falls as sensitivity rises. For part of these data: Any top dose called inferred was calculated from the reported fits.
